The supplement of paper PMC3334620
Over roughly 33,000 sequences, “E-score (-0.5 to 0.5)” has its median near -0.012; the highest 2% begin near 0.27. This is one part of the list.

target: T1, Vhr1 (UniProt P40522); assay: PBM E-score (8-mer binding enrichment) (E-score (-0.5 to 0.5)); higher = stronger / more preferred TF binding; most listed sequences are background and not binding sites; settings: protein concentration: 200 nM; construct: GST-full length
T1 sequence: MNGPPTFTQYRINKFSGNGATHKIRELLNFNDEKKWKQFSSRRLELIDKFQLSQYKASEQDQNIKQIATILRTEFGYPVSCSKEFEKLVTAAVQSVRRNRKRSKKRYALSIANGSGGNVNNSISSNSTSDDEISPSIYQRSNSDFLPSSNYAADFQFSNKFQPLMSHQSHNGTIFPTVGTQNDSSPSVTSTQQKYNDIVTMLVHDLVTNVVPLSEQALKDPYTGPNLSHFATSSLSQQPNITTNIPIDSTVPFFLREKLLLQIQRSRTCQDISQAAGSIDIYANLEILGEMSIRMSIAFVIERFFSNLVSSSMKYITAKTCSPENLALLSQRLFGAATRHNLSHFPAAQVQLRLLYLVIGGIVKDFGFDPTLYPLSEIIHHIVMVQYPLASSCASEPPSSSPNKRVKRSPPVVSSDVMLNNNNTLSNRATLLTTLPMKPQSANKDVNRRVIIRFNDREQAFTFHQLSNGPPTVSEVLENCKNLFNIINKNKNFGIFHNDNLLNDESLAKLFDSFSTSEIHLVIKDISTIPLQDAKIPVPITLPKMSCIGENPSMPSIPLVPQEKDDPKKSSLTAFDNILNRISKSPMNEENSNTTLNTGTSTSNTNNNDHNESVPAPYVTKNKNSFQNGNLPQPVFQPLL
Method: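 Universal 'all 10-mer' protein binding microarrays (Agilent AMADID 015681) probed with GST-tagged S. cerevisiae TFs (full-length or DBD) made by in vitro transcription/translation (PURExpress), about 100-200 nM. Bound TF was detected with fluorescent anti-GST. Each ungapped 8-mer (which stands for itself and its reverse complement) is scored by the PBM enrichment score (E-score), a modified Wilcoxon-Mann-Whitney statistic from -0.5 to +0.5, computed with the Universal PBM Analysis Suite. Scale: above 0.35 generally sequence-specific binding.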

Row | Sequence | PBM E-score
1 | CATAGCCG | -0.0116
2 | CAGTTACC | -0.14
3 | GATAAATC | -0.091
4 | ACGGGACT | -0.0602
5 | ATTGTCAA | 0.0852
6 | AACTAACC | 0.215
7 | ACCTAAGT | 0.0395
8 | CGAGAGCC | -0.0736
9 | GAAATGGC | -0.17
10 | AAAAGCGC | -0.137
11 | CGTAGGGC | -0.339
12 | AATTGACA | -0.175
13 | CAGCGGTA | -0.011
14 | CATAGAAG | -0.0987
15 | ACGCCGCA | 0.0541
16 | TCCCTCCA | -0.139
17 | AGCCTAGA | -0.291
18 | CAGCCGGA | 0.198
19 | AATACTGC | -0.0473
20 | AGCTCGAA | -0.0606
21 | CAATGGCG | -0.104
22 | TCGAGGCA | 0.018
23 | GTGCCGCA | -0.118
24 | TCATTCCA | 0.0385
25 | TCGAATCA | 0.253

Row | Sequence | PBM E-score
26 | GCCCACAA | -0.022
27 | ACGGCACC | -0.293
28 | ACTCCTTA | -0.0469
29 | CATTCCTA | 0.0131
30 | AAGTATAA | 0.00367
31 | AAATCCGC | -0.148
32 | CGGCACAA | -0.0308
33 | AGATGTTC | -0.219
34 | ACAATTCG | 0.0415
35 | GACCCACA | 0.284
36 | ATACGAAA | 0.101
37 | CCGCCCGA | 0.161
38 | AGACCCTA | -0.0568
39 | CAAGCCAC | -0.127
40 | AAGTCTTC | -0.151
41 | AAATACGC | -0.0213
42 | ATTCAGCG | -0.0101
43 | CGCTGCAC | 0.106
44 | GCCGTAAC | -0.0732
45 | CTGTTAAA | -0.214
46 | AAATCGAG | -0.0638
47 | ACCAGGGG | 0.0276
48 | ACTAATAC | 0.192
49 | CCATGTAC | 0.0619
50 | CGGCCTTC | -0.128

Row | Sequence | PBM E-score
51 | GGTTTGTA | 0.016
52 | GTGCGTAA | -0.0387
53 | ACAAGAGC | -0.0338
54 | CAGACAGC | -0.163
55 | ATGTATTG | 0.241
56 | AATTCCTG | -0.306
57 | CTTCGCAC | -0.127
58 | TGGAACAA | -0.0669
59 | AATGCGCA | 0.0444
60 | AGTTACGG | 0.0674
61 | GTCTCATA | 0.0749
62 | CATTTTTC | -0.132
63 | TCACCACA | 0.236
64 | ATTACAAA | 0.0693
65 | CAGGTATC | -0.0492
66 | AACAATAC | 0.0279
67 | GCCTCAGA | 0.138
68 | CAACCCCG | -0.041
69 | CGAACTCC | 0.00855
70 | AACCCAGC | 0.162
71 | GCCTATAA | -0.118
72 | GCGGACAC | 0.0247
73 | TACCGATA | -0.0891
74 | AGGGTTGG | -0.0946
75 | CAATTTTA | -0.0392

Row | Sequence | PBM E-score
76 | AATTGTCT | -0.00025
77 | ATGCAACA | 0.0546
78 | CACAGTCG | 0.0927
79 | AACCAGGG | 0.0884
80 | TATATCCA | 0.0413
81 | GTAGGAAA | -0.0392
82 | GCTCCGTA | -0.0643
83 | ATATATAC | 0.285
84 | CATTCAAA | 0.00057
85 | AGCTCCCG | -0.194
86 | AAAGCTGG | -0.13
87 | GTGTCAAC | -0.00154
88 | AGAATTTG | -0.17
89 | ACGCGAAG | 0.0207
90 | AAACACGG | -0.0903
91 | AGAGGGGG | -0.218
92 | ACATGGCA | 0.11
93 | ACATTGTG | 0.0853
94 | CAACCCGA | 0.034
95 | AAACTACC | -0.0427
96 | ATTAATTA | 0.0406
97 | AGGAGTGA | 0.00535
98 | ACGTGGCC | -0.297
99 | CGTTTCGA | -0.103
100 | AAGATGCT | -0.159

Row | Sequence | PBM E-score
101 | GCGACAGC | -0.189
102 | AAGAATGA | 0.0188
103 | CCCGTCCG | -0.167
104 | CCAATCCA | -0.0361
105 | ACTCCAGC | 0.187
106 | ACCGTCAT | 0.0674
107 | ACCACTAG | -0.101
108 | CCTCGACG | -0.241
109 | CGGCCCAG | -0.102
110 | CAGGGGTA | -0.129
111 | CGCTAGCG | -0.263
112 | AACCTTGT | -0.0788
113 | TCTTCCCA | -0.168
114 | CAAGCACG | 0.029
115 | AACCCCAT | 0.0589
116 | GACTCCCC | 0.223
117 | GCGGCGTA | 0.101
118 | AACCCCAC | 0.0262
119 | AGAAGGTA | 0.0148
120 | AGTTGAGC | -0.105
121 | CTGGCGAA | 0.0736
122 | CCACAGGG | -0.12
123 | AAGTCGAG | -0.158
124 | AAAATGCT | 0.00247
125 | ATCAGTGA | -0.0469

Row | Sequence | PBM E-score
126 | GGAGTTAA | 0.022
127 | CGATGTCC | 0.0618
128 | CGTGGTCC | 0.0707
129 | CCTATGAC | 0.0237
130 | CGAGGCAG | -0.118
131 | ATTTCAAC | -0.18
132 | TCATGCGA | 0.285
133 | AAGTTGGG | -0.0448
134 | CTCCGAGA | 0.0305
135 | TACCTCTA | -0.134
136 | ACGACGGA | 0.0348
137 | CAGGGAGA | 0.021
138 | GGAAACTA | -0.00502
139 | ATTTCGCG | 0.069
140 | AACTCTGC | 0.0334
141 | GTTCATTA | -0.0167
142 | GTTTAGAA | -0.121
143 | CAGTCTTA | -0.00565
144 | GGCCCGCC | -0.0605
145 | GAAAATAA | -0.25
146 | CATTGCTC | 0.0833
147 | ACCAGGTG | -0.00153
148 | GAGACCCA | 0.0811
149 | AACTAAGC | -0.0419
150 | GAAAACTC | -0.187

Row | Sequence | PBM E-score
151 | ATTCGTTC | -0.0156
152 | ATCTGAGC | -0.0187
153 | CTGAGATC | -0.142
154 | AGAAGGAC | -0.213
155 | AGGATCGG | -0.0744
156 | AGACCCGC | 0.121
157 | GATCAGCA | 0.0116
158 | TAAATCAA | -0.0533
159 | AGACCCCA | 0.0804
160 | ACCGGAGG | -0.128
161 | ATGAGACG | 0.00085
162 | TGAGCCCA | 0.13
163 | ACAGAGGA | 0.026
164 | ACGGATCG | 0.0223
165 | CATATTGG | 0.132
166 | CGATAGAA | -0.164
167 | CTTGGCGC | 0.0312
168 | GAAATCAA | -0.199
169 | CAGTTCGC | -0.00078
170 | AATAAAGC | -0.176
171 | CACTGTAA | 0.123
172 | CTGACACA | 0.253
